± gives the standard deviation. The full ranking holds about 6,600 sequences; the median of “pre-steady-state target cleavage rate” is about 0.07, and the highest 2% start at about 0.72. This is a selection; strong and weak results do not stand in their true shares.
The sequences below were run on MIWI (PIWIL1) piRISC loaded with Kctd7 piRNA (30 nt) (assay: pre-steady-state target cleavage rate (min^-1); MIWI and MILI are mouse PIWI proteins and EfPiwi is from a freshwater sponge; tags in brackets are library labels; higher = faster piRNA-guided slicing of the target). Details: guide: Kctd7 piRNA 5'p-UGUUAAUCUCUCAGAGAAGGUGACAGUGAU; auxiliary factor: 500 nM mouse GTSF1.
In short: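 In Cleave-'n-Seq, a transcribed, DNA-blocked target RNA library (0.1 nM) was combined with 1 nM active affinity-purified piRISC bearing one synthetic guide, with or without 500 nM GTSF1 partner protein. Reactions ran in HEPES–potassium acetate buffer at 33 °C for 0–8 or 0–960 min. Uncleaved targets were sequenced and normalised to depth and to weakly complementary targets, three trials were pooled, and k3 was capped at 0.0001 min^-1. The pre-steady-state cleavage rate was obtained by fitting a burst-and-steady-state model.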

Sequence	pre-steady-state target cleavage rate
AUGACUGUCACCUUCACUGAGAGAUUAACA	0.541 ± 0.032
UAGACUGUCACCUUCUCUGAGAGAUAUUGA [g6:g27:cont:t1A]	0.00602 ± 0.0037
UUCACUGACACCUUCUCUGAGAGAUUUUGA	0.164 ± 0.033
AUCACUGUCACCUUGUGUGAGAGAUUAACA	0.199 ± 0.017
UAGUGUCUCACCUUCUCUGAGAGAUUAUGA	0.0314 ± 0.0099
UACACUGUCAGGUUCUCUGAGAGAUUAUGA	0.00793 ± 0.0032
UAGUGAGUCCCCUUCUCUGAGAGAUUAACA	0.583 ± 0.049
UAGUCUGUCACCUUCUCACUGAGAUUAACA	0.00623 ± 0.003
UAGUCUGACACCUUCUCUGUGAGAUUAACA	0.161 ± 0.01
UAGUGACUCACCUUCUCUGAGAGAUUGAACA	0.307 ± 0.05
AACACAGUCACCUUCUCUGAGAGAUUAACA	0.736 ± 0.032
UUCACUGUCACCUUCUCUGAGAGUAUUAACA	0.547 ± 0.057
UAGACUGUCACCUUUUCUGAGAGAUUAACA	0.732 ± 0.034
UAGUGUGUCAUCCUUCUCUGAGAGAUUAACA	0.207 ± 0.022
UAGUGAGACACCUUCUCUGAGAGAUAAACA	0.189 ± 0.02
UAGUGUGUCACCUUCUCAGAGAGAUUUUGA	0.0712 ± 0.021
UACACUGUCACCUUCUCUGAGACAUUAUGA	0.0104 ± 0.0049
UAGUGACUCACCUUCUCUGAGAGAUUAAA	0.219 ± 0.036
UAGUGAGUCACCUUCUCUGACAGAUUUACA	0.0602 ± 0.018
AACACUGUCACCUUCUCAGAGAGAUUAACA	0.429 ± 0.024
UACACUCUCACCUUCUCUGAGACAUUAACA	0.294 ± 0.023
UAGUGACUCUCCAUCUCUGAGAGAUUAACA	0.00895 ± 0.0026
UAGUGACAGUGGAACUCUGAGAGAUUAAGCA	< 0.0001
UAGUGACUCACCUUCACUGAGAGAUAAACA	0.0971 ± 0.015

Sequence	pre-steady-state target cleavage rate
UAGUGACUCACCUUCUCUGAGAGAUUACACA	0.19 ± 0.043
UAGUCUGACACCUUCUCUGAGAGAUAAACA	0.273 ± 0.026
UUCACUGUCACGUUCUCUGAGAGAAUAACA	0.236 ± 0.038
UAGUGACACACCUUCUCUGACAGAUUAACA	0.22 ± 0.028
UAGUGACAGUCCUUCUCUGAGCGAUUAACA	0.00949 ± 0.0032
UAGUGACUCAGCCUUCUCUGAGAGAUUAACA	0.101 ± 0.0099
UAGUGAGUCACCUUCUCUGAGAGUAAUUGA [g8:g24:cont:t1A]	0.0181 ± 0.008
UAGUGAGUCACCUAGUCUGAGAGAUUAACA	0.276 ± 0.02
UAGUGUGUCACCUUCUCUGAGAGAAAAUGA	0.0301 ± 0.0098
UAGUGUGUCACCUUCUGUGAGAGAAUAACA	0.0788 ± 0.011
UAGUGAGUCACUUUCUCUGAGAGAUUAACA	0.641 ± 0.029
UAGUGUCUCACCUUCUCUGAGAGAUUAACA	0.658 ± 0.043
UUCACUGUCACCUUCACUGAGAGAUUUACA	0.353 ± 0.049
UACACAGUCAGCUUCUCUGAGAGAUUAACA	0.637 ± 0.028
AUCAGUGUCACCUUCUCUGAGAGAUUAAGA	0.143 ± 0.03
AUCACUGUCACCUUCUCUGAGAGUAAAACA	0.125 ± 0.024
AUCACUGUCACCUUCUCUGAGAGAUUAAA	0.223 ± 0.029
UAGUGACAGUCCUUCUCUGAGAGCUUAACA	0.0171 ± 0.0038
UAGUGAGUCACCUACUCUGAGUGAUUAACA	0.024 ± 0.0056
UAGUGACACACCUUCUCAGAGAGAUUUUGA	0.00465 ± 0.0033
UAGUGAGUCACCUUCUCAGAGAGAUUAACA	0.514 ± 0.035
UAGACUGUCACCUUCUCUGAGAGAUAUAACA	0.344 ± 0.034
UUCACUGUCACCAUCUCUGAGAGAUUUACA	0.274 ± 0.035
UUCUCUGUCACCUUCUCUGAGAGAUUUACA	0.244 ± 0.036

Sequence	pre-steady-state target cleavage rate
UACACUCAGACCUUCUCUGAGAGAUUAAGA	0.0222 ± 0.0091
AUCACUGUCACCUUCUCAGAGACAUUAACA	0.136 ± 0.014
UAGUGAGUCACCAUCUCUGAGAGAUUAUCA	0.233 ± 0.038
UUCACACACACCUUCUCUGAGAGAUUUUGA	0.137 ± 0.035
UAGUCUGUCACCUUCUCUGUGAGAUUAAGA	0.0828 ± 0.017
UAGUGUGUCUCCUUCUCUGAGAGAUAAACA	0.0854 ± 0.018
UAGUCUGUCACGUUCACUGAGAGAUUAACA	0.305 ± 0.02
AUCUCUGUCACCUUCUCUGAGAGAUUAUGA	0.118 ± 0.023
UAGACUGACACCUUCUCUGAGAGAUAUUGA	0.0107 ± 0.0038
UAGUGACUCACCUUCUCAGAGAGAUUAAGA	0.0314 ± 0.0054
AUCACUGUCACCUUCUCUGUGUGAUUAACA	0.0275 ± 0.011
UAGUGACACACCUUCUCUGAGAGAAAUACA	0.0687 ± 0.015
UAGUCUGUCACCUUCUCUCAGAGAUUAUGA	0.00931 ± 0.0051
UACACUCUCACCUUCUCUGAGAGAUAAACA	0.181 ± 0.027
UAGUGAGUCACCUUCUCUGAGUCAUUAACA	0.0116 ± 0.0049
UAGUGACAGUGCUUCUCUGAGACAUUUACA	< 0.0001
UUCACUCUCACCUACUCUGAGAGAUUAACA	0.495 ± 0.027
UAGUGUGUCAGCUUCUCUGAGUGAUUAACA	0.0228 ± 0.003
UACACUGUCACCUUCUGUCAGAGAUUAACA	0.0156 ± 0.0071
UAGUGACUCACCUUCUCUGAGAGAUUAUACA	0.265 ± 0.037
UAGUGACACACCUUCUCUGAGAGUAAAACA	0.0391 ± 0.0073
UAGUGACUCACCUUCUGAGAGAGAUUAACA	0.0117 ± 0.0032
UAGUGUGUCACAUUCUCUGAGAGAUUAACA	0.639 ± 0.048
UAGUGAGUCACCUUCUCCGAGAGAUUAACA	0.497 ± 0.087
